PubChem BioAssay AID624417 (National Center for Advancing Translational Sciences (NCATS), 2012)
Hit rate of the full screen: of about 410,000 compounds, about 6,400 (1.6%) were called active. The shares of active, inactive and inconclusive entries below differ from those in the screen. The call rests on the fitted dose curve; in most records, active means well fitted inhibition curve with a large enough effect; inconclusive means small, poorly fitted or top-dose-only effect; inactive means no such curve, though single readings can be large or run the other way. No potency is given beside an inconclusive call; the fits are too rough.

Molecular target: Glucagon-like peptide 1 receptor (Homo sapiens) (UniProt P43220)
UniProt P43220, sequence (P43220 whole entry, looked up): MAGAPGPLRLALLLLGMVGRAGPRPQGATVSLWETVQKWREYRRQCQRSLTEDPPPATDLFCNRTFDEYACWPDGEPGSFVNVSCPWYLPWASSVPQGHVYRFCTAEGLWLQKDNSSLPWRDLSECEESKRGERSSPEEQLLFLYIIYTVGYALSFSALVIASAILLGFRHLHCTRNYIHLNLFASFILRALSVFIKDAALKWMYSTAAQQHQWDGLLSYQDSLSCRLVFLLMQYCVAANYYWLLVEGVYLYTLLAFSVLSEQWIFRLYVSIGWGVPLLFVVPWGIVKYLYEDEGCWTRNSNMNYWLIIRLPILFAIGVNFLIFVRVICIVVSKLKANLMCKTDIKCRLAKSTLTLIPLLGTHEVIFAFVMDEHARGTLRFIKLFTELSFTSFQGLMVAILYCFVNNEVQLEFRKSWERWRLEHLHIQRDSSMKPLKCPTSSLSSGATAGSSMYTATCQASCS
Experiment: qHTS of GLP-1 Receptor Inverse Agonists (Inhibition Mode); further: nearly all actives have a fitted effect of over 55% in size
Conditions: HEK293 GLP-1R CRE-luciferase, luminescence, 24 h, GLP-1R form is constitutively active; activity change, negative = inhibition: at 38.3 µM (top of the series) unless noted
Method in brief: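 HEK293 cells stably co-expressing a cAMP-responsive luciferase reporter and constitutively active GLP-1R were seeded, incubated 12 h, then exposed to compounds for 24 h at 37 C. Luminescence was read 12 min after detection reagent; inverse agonists lower signal.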
On the % scale 0 is the no-effect control and ±100 the full control effect; potency means the concentration at half of the fitted maximal effect; tags describe the fitted curve by direction and shape.

Row | Compound | Potency | activity change, negative = inhibition
1 | C=CCC1(CC=C)CC(Cc2cnccn2)N(C(=O)OC(C)(C)C)C1 (stereo not given) | inconclusive [inhibitor, partial curve, poor fit] | –
2 | CCOC(=O)c1c(CN2CCOCC2)oc2ccc(OC(C)=O)cc12 | – | inactive: 26.7%
3 | COCCNc1nc(-c2ccc(OC)cc2)c(-c2ccc(OC)cc2)s1 | inconclusive [inhibitor, partial curve, poor fit] | –
4 | Cc1ccc(-n2ncc(C#N)c2/N=C/N2CCCCCC2)cc1 | inconclusive [inhibitor, partial curve, poor fit] | –
5 | COc1ccc(NC(=O)c2cc3c(=O)n(Cc4cccs4)ccc3nc2C)cc1 | inconclusive [inhibitor, partial curve, poor fit] | –
6 | Cc1ccc(/C=N/Nc2ccc(F)cc2F)s1 | active: 5.01 µM | –
7 | COc1ccc(/C=N\NC(=O)c2cc3c(ccc4ccccc43)o2)cc1O | inconclusive [inhibitor, single point] | –
8 | CCOc1ccc(C(=O)Nc2ccc(CN3CCOCC3)cc2)cc1Br | inconclusive [inhibitor, single point] | –
9 | Cc1ccc(NC(=O)c2c(NC(=O)c3ccc(F)cc3)sc3c2CCCC3)cc1C | – | inactive: 11.4%
10 | CCOc1ccc2nc(SCc3ccc(OC)cc3)sc2c1 | inconclusive [inhibitor, partial curve, poor fit] | –
11 | O=C(Nc1cccc(S(=O)(=O)N2CCOCC2)c1)c1cn(-c2ccccc2)nc1-c1ccccc1 | inconclusive [inhibitor, partial curve, poor fit] | –
12 | Cc1ccc(NC(=O)c2oc3ccc(S(=O)(=O)N4CCCCCC4)cc3c2C)c(C)c1 | – | inactive: 13.4%
13 | COc1ccc(N2CCN(C(=O)c3cc4c(C)nc5ccccc5c4o3)CC2)cc1 | inconclusive [inhibitor, single point] | –
14 | Cn1c(SCC(=O)N(C2CCCCC2)C2CCCCC2)nnc1-c1cccs1 | inconclusive [inhibitor, single point] | –
15 | Cc1noc(C)c1-c1ccc(C(=O)Nc2cccc(C(F)(F)F)c2)c2occc12 | inconclusive [inhibitor, single point] | –
16 | CCn1c(=O)c2cc(C(=O)NC3CCC(C)CC3)sc2c2ccccc21 (stereo not given) | inconclusive [inhibitor, full curve, poor fit] | –
17 | c1ccc(CNc2nc(-c3cccnc3)cs2)cc1 | inconclusive [inhibitor, single point] | –
18 | CC(C)Sc1cc(N2CCCC2)nc(-c2ccccc2Cl)n1 | inconclusive [inhibitor, single point] | –
19 | CC(C)(C)OC(=O)N1CCC(c2c(C(=O)NCC3CCN(C4CCCC4)C3)cnn2-c2ccccc2Cl)CC1 (stereo not given) | inconclusive [inhibitor, single point] | –
20 | COc1cccc(COC(=O)c2sc3nc4n(c(=O)c3c2C)CCC4)c1OC | – | inactive: 14.5%
21 | CC1CCCCC1Nc1nc2ccc(Cl)cc2n2cnnc12 (stereo not given) | inconclusive [inhibitor, single point] | –
22 | CCOC(=O)NC1Cc2ccccc2C1Sc1ccccn1 (stereo not given) | inconclusive [inhibitor, single point] | –

Row | Compound | Potency | activity change, negative = inhibition
23 | CCOC(=O)CSc1nc2ccccc2c(=O)n1CC1CCCC1 | inconclusive [inhibitor, partial curve, poor fit] | –
24 | Cc1ccccc1NS(=O)(=O)c1ccc2[nH]cc(C(=O)NC3CCCCC3)c(=O)c2c1 | active: 10 µM | –
25 | COc1ccc2c(CC(=O)Nc3ccccc3N3CCOCC3)coc2c1 | inconclusive [inhibitor, partial curve, poor fit] | –
26 | COc1ccc(N(CC(=O)Nc2ccc(C(C)C)cc2)S(=O)(=O)c2c(C)noc2C)cc1 | inconclusive [inhibitor, full curve, poor fit] | –
27 | CC(=O)Cc1cc(O)c2ccccc2c1OC(=O)c1ccccc1 | inconclusive [inhibitor, single point] | –
28 | CN(C)Cc1cccc(-c2ccccc2)c1O | inconclusive [inhibitor, single point] | –
29 | COc1cccc(-c2nc(SCC(=O)Nc3nc(-c4ccccc4)c(C)s3)[nH]c(=O)c2C#N)c1 | – | inactive: 1.53%
30 | COc1ccc(NC(=O)C(=O)Nc2cccc3cccnc23)c(OC)c1 | – | inactive: -11.5%
31 | CC1=CC(C)(C)NC(=S)N1C(C)c1ccccc1 (stereo not given) | inconclusive [inhibitor, single point] | –
32 | Cc1cc(C)nc(NC(=O)CSc2nc3ccccc3s2)n1 | – | inactive: 0.284%
33 | O=C(C[C@H]1C/C=C\CC[C@H](Cc2ccc(F)cc2)C(=O)OC[C@H]2CCCN2C1=O)N[C@@H](CO)Cc1ccccc1 | inconclusive [inhibitor, single point] | –
34 | CC1(C)CC(=O)/C(=C(/O)Cc2ccccc2)C(=NCCc2ccccc2)C1 | inconclusive [inhibitor, partial curve, poor fit] | –
35 | CCn1c(C(=O)Nc2c(C)cccc2C)cc2sc(Cl)cc21 | inconclusive [inhibitor, partial curve, poor fit] | –
36 | COc1cccc(NC(=O)N(Cc2c[nH]c3ccccc23)C2CCCCCC2)c1 | inconclusive [inhibitor, partial curve, poor fit] | –
37 | Cc1ccc(C(=O)NC(=S)N2CCN(c3ccccc3F)CC2)cc1 | inconclusive [inhibitor, partial curve, poor fit] | –
38 | Cc1cnc(NC(=O)CCCc2nc3ccccc3s2)s1 | inconclusive [inhibitor, partial curve, poor fit] | –
39 | COc1ccc(C(CNC(=O)c2cc(S(=O)(=O)Nc3cccc(C)c3)ccc2C)N2CCCC2)cc1 (stereo not given) | inconclusive [inhibitor, partial curve, poor fit] | –
40 | Clc1ccccc1-c1nc(-c2ccc(Br)o2)no1 | inconclusive [inhibitor, partial curve, poor fit] | –
41 | CN1/C(=C\C(=O)c2cccs2)Sc2ccccc21 | inconclusive [inhibitor, full curve] | –
42 | Cc1c(C#N)c(N)nc2c3c(sc12)NC(=O)CC3c1ccccc1 (stereo not given) | – | inactive: 84%
43 | COc1ccc(C(=O)/C=C(\N)C(F)(F)F)c(O)c1 | – | inactive: 0%
44 | CSc1c(CC(=O)Nc2ccccc2Cl)n(Cc2ccccc2)c2ccccc12 | inconclusive [inhibitor, full curve, poor fit] | –

Row | Compound | Potency | activity change, negative = inhibition
45 | COc1ccc(-n2ncc(C(=O)Nc3ccc4c(c3)OCO4)c2C2CCN(C(=O)OC(C)(C)C)CC2)cc1 | – | inactive: 4.76%
46 | CC(=O)Nc1ccc(-c2ccnc3c2CC(C)(C(=O)NCCc2ccccc2)O3)cc1 (stereo not given) | inconclusive [inhibitor, single point] | –
47 | CCCCCC/C(C)=C1/SC(=S)NC1=O | inconclusive [inhibitor, single point] | –
48 | COc1ccc(C(=O)CCS(=O)(=O)c2ccc(C)cc2)cc1 | inconclusive [inhibitor, single point] | –
49 | COc1ccc2oc(-c3ccc(C)c(NC(=O)c4ccc5c(c4)OCCO5)c3)nc2c1 | – | inactive: 9%
50 | O=C(NCCCN1CCN(c2cccc(Cl)c2)CC1)c1cccc(N2CCCC2=O)c1 | inconclusive [inhibitor, partial curve, poor fit] | –
51 | CC(NC(=O)CCCN1C(=O)c2ccccc2C1=O)c1ccc2c(c1)CCCC2 (stereo not given) | inconclusive [inhibitor, single point] | –
52 | N#CC1=C(SCC(=O)NC23CC4CC(CC(C4)C2)C3)NC(=O)C(C#N)C12CCCCC2 (stereo not given) | inconclusive [inhibitor, partial curve, poor fit] | –
53 | COc1ccc(/C=N/Nc2ccc(C(=O)O)cc2)cc1OC | inconclusive [inhibitor, single point] | –
54 | O=c1c(Cl)c(N2CCN(c3ccc(F)cc3)CC2)cnn1C12CC3CC(CC(C3)C1)C2 | inconclusive [inhibitor, full curve, poor fit] | –
55 | COCCCn1c(=N)c(C(=O)NCc2cccnc2)cc2c(=O)n3cccc(C)c3nc21 | – | inactive: 8.01%
56 | N#Cc1cnn(-c2nc(SCc3ccccc3)nc3sc4c(c23)CCCC4)c1N | inconclusive [inhibitor, single point] | –
57 | COc1ccccc1N1C(=O)c2ccccc2NC1c1cc(OC)c(OC)c(OC)c1 (stereo not given) | – | inactive: 17.4%
58 | NC(Cc1ccc(C(F)(F)F)cc1)c1csc(Nc2ccc(C(=O)c3ccccc3)cc2)n1 (stereo not given) | inconclusive [inhibitor, partial curve, poor fit] | –
59 | CC(C)(C)NC(=O)C(=O)NNC(=O)c1cccc(Br)c1 | – | inactive: 16.7%
60 | Cc1cnc(N=Nc2ccccc2)[nH]1 | inconclusive [inhibitor, single point] | –
61 | O=C1C=CC(=O)C(CNc2ccc(C(=O)OCc3ccccc3)cc2)=C1 | inconclusive [inhibitor, single point] | –
62 | COC(=O)c1ccccc1NC(=O)c1ccc(-c2nc(COc3ccccc3)c(C)o2)cc1 | – | inactive: 9.46%
63 | O=C(c1ccccc1)c1cn(Cc2ccc(F)cc2)c2ccccc2c1=O | inconclusive [inhibitor, partial curve] | –
64 | Cc1cc(Cl)c(S(=O)(=O)N2CCN(c3ccccn3)CC2)cc1OCC(=O)NC1CCCCC1 | inconclusive [inhibitor, single point] | –
65 | O=[N+]([O-])c1ccc(C(O)CN2CCN(c3ccccc3)CC2)cc1 (stereo not given) | inconclusive [inhibitor, single point] | –
